# This is one part of the list.
# T1: UNK ZnF1-3 (human, UniProt Q9C0B0 31-174)
# T1 sequence: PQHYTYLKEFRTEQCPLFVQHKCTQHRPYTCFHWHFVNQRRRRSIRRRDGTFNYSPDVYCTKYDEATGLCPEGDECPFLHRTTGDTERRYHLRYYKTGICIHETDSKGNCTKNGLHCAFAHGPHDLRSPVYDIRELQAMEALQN
# B1: chr17:87833181:87833182:-_ENSMUSG00000036438_ENSMUST00000040440|perfect_dup|motif|central (ssRNA)
# RNA: GGGAGUUCUACAGUCCGACGAUCAGGGCUUAGAUAUAUCCAGAGUAAGCCACAUGCAACAUGUUACUUGAUCAAUUUUCGGAAAUAAGGUUUUAGGACAAUGACAGUAAGAUAAGGGAAGAAAACAUGGAGGAAUGAAGUCCUCAACAGAGGAUUGAGCAUCA
# B2: chr8:101932682:101932683:-_ENSG00000164924_ENST00000353245|hu_mus|FALSE|FALSE (ssRNA)
# RNA: GGGAGUUCUACAGUCCGACGAUCGACAUGGAAGCAGUUUUAACACUGGCCCUUCUGAAGCCACAAUGUACCAAAAGUACUAUGCCAAACAUGUGUAACUCAUGUAAAAAUUCCACAUCCCAUAUUGGCCACCUCAAGAUGAAACAACAGAGGAUUGAGCAUCA
# B3: chr2:117085000:117085001:+_ENSMUSG00000027349_ENSMUST00000028825|mus_mus|FALSE|FALSE (ssRNA)
# RNA: GGGAGUUCUACAGUCCGACGAUCGCGCUCUUUAAUGUCUCCUGAGACGAGUACCGAGUAUGGACAGGCCAUCUCUUUUAAAAACCCACUUAUCUCAAGCUGGAAGCUCUCUAGGUCAUCUCUCCCAGCUGAAGUGAUGCUUUCCAACAGAGGAUUGAGCAUCA
# B4: chr6:41757443:41757444:+_ENSG00000214736_ENST00000398881|hu_mus|hu_hu_hu_mus_False|18_68 (ssRNA)
# RNA: GGGAGUUCUACAGUCCGACGAUCGAACCGUGCAGAGGCAACAUCUCAGCCGACACUGGGGGAUGGGGGAACAAAAGGGGGGGGUUCAGGCAAGGAGAGGGAGUCAACUUCAGCUGCUCAAACUUCAGGAUCUUGUGGUCACAGCAACAGAGGAUUGAGCAUCA
# B5: chr1:171556206:171556207:+_ENSG00000117523_ENST00000495585|hu_hu|FALSE|FALSE (ssRNA)
# RNA: GGGAGUUCUACAGUCCGACGAUCGUGCUUGGGGAGUGGUAUGCUGUAAUGGGGGCUGAAGAGUCUGAGGCAAAGCAAUUAGAGGUUGCCCUGUAGAUCCAAAAUUAGGCAAGGAAAGCUGCGAUGCUGGUAAAGGUACUGUAACAACAGAGGAUUGAGCAUCA
# B6: chr2:210595268:210595269:+_ENSG00000078018_ENST00000392194|hu_hu|FALSE|FALSE (ssRNA)
# RNA: GGGAGUUCUACAGUCCGACGAUCUGUAAAGCCAGUGUCUUCCUGUUGCAAAUGGAAAUCAGGUCAAUUUCUGCAUGUACUAUUCAUUUUUUAAAUAGAAAAUUGUAACAAUUACUACAGUUUGGGGAUGAGAUUAUUUAUUUUCAACAGAGGAUUGAGCAUCA
# B7: chr13:85359083:85359084:-_ENSMUSG00000021549_ENSMUST00000109552|mus_hu|motif|central (ssRNA)
# RNA: GGGAGUUCUACAGUCCGACGAUCGGGCUCCUUAGCUCCAAAUUCCACAAGAUUUGCUAAGUUCUGCACAGAUUUAGCCACGGAUAUCAGUGUUCUUGCAGCAAUAGGAGAUGGAGAAUCUGAGAUGAUAUUGAACAUCCGUGGCAACAGAGGAUUGAGCAUCA
# B8: chr11:118370577:118370578:+_ENSG00000118058_ENST00000534358|hu_hu|FALSE|FALSE (ssRNA)
# RNA: GGGAGUUCUACAGUCCGACGAUCCUGAUAUCCAAUAGGAAAGAGCUUAUCUUCACAGUCGGAGAGAUCAUUUAGAAUUCCUAAGCAGUCGAUUGUCAUAGACCCAAUCAUCAUGUGGAUAUUUUCUGGUUCCAAGCCAUUGAGCAACAGAGGAUUGAGCAUCA
# B9: chr17:64801638:64801639:+_ENSG00000154229_ENST00000413366|hu_mus|hu_hu_hu_mus_False|1_68 (ssRNA)
# RNA: GGGAGUUCUACAGUCCGACGAUCUAUAUAUAUAUAUACAUAUGUACACAUAUAUAGUAAAACCCUAAUCUAUCACGUAAAGUAGCCAUUCAUUUUUAAAAUUACAUCUACAUUAAAAAAUUAAUAUAUCUGAUAGAGUGCCCACAACAGAGGAUUGAGCAUCA
# B10: 37163817_37168505_2464_3pUTR_ENSG00000170471_ENST00000397040|human|control|control (ssRNA)
# RNA: GGGAGUUCUACAGUCCGACGAUCAGCUGGCCGACUACACUGAUAAACAAUGUAGGUGCACACAGAACUGAUGGCUCGCUUCCGGUCUCCUGAGUCAACCAUCACUUUUACCUUUGCAAGGCCAGAGAGGAGCUCUAGAGCUGCCAACAGAGGAUUGAGCAUCA
# B11: chr1:163112212:163112213:-_ENSG00000143248_ENST00000313961|hu_hu|hu_hu_hu_mus_False|8_68 (ssRNA)
# RNA: GGGAGUUCUACAGUCCGACGAUCUUUUAUUAUCAGUAAGAGUGAGUUACAUACUAGGCAAAGUAUUGAAUACAAAAAUCAGGAAACAAACACUAUUGGUCCAGAAUUUAAAACUUUAUGAGCGAAGGCUUACAAAUGGACUUACAACAGAGGAUUGAGCAUCA
# B12: chr20:44444512:44444513:+_ENSG00000175063_ENST00000356455|hu_mus|motif|central (ssRNA)
# RNA: GGGAGUUCUACAGUCCGACGAUCCAGGUAUUUCUUAAAUGCUGUGGGGUUUUUCCAGAGUUCCGCAGCGUGUGUGUUCAAAGGGCGGUCGAUGUUGGGUUCUCCUAGCAGGCUCUGGAUAGAGAGCAAGAUAGUCCUGACAUCCAACAGAGGAUUGAGCAUCA
# B13: 56724551_56724671_207_CDS_ENSMUSG00000071054_ENSMUST00000095224|mouse|control|control (ssRNA)
# RNA: GGGAGUUCUACAGUCCGACGAUCCCGCGUCCCGGUCUCUGACGCCGCGGAGCUCACGGCCGCCGCGCCCGCCGCACUCGCGUCUCCUAAACCCGACAGAGUCUCCGCCAUUCCAGGGACCCUGGUUCCGUCGCCCACUUCACACAACAGAGGAUUGAGCAUCA
# B14: chr13:31711309:31711310:-_ENSG00000120694_ENST00000320027|hu_mus|motif|central (ssRNA)
# RNA: GGGAGUUCUACAGUCCGACGAUCAGAGACUACACAGAUUCAAGCUUUUCCUUUUUUCCCCUCAUAAUACACAAAAUUUCGGGACAGUCUUAAAAAAAAGAAAAUAUAAAUAGACUCAGUCUGUUAUACAGGAUCACAUACUAUCAACAGAGGAUUGAGCAUCA
# B15: chr9:14812383:14812384:-_ENSMUSG00000031934_ENSMUST00000164273|mus_hu|FALSE|FALSE (ssRNA)
# RNA: GGGAGUUCUACAGUCCGACGAUCAUAGCCCAGGUAGAUACACGCUAACAGUAUAAUGAUGAGUGUCAGCAGGCGGCAGCUAAUGUACUUGAUGAUUAAAUUAUUAGAAUUUUUCUUUGUCUUCAAGUACUGCUCCACAAUUGGCAACAGAGGAUUGAGCAUCA
# B16: 224577001_224577121_2655_3pUTR_ENSG00000162923_ENST00000295024|human|control|control (ssRNA)
# RNA: GGGAGUUCUACAGUCCGACGAUCCGGGCAAGGCUAGAAUCCAUGAACCAAGCUGCAAAGAUCUCAAGCUAAAUAAGGCGGAAAGAUUUGGAGAAACAAAAGAAGGAAAUUCUUUCCUAUCCAAUGUAUACUCUUCAGACUAAUCAACAGAGGAUUGAGCAUCA
# B17: chr11:12883819:12883820:+_ENSG00000187079_ENST00000361905|hu_mus|FALSE|FALSE (ssRNA)
# RNA: GGGAGUUCUACAGUCCGACGAUCAAUGUGACUAGACACCUGCUUCCUGGUCCUUGUCUUUCCCGUCCUGAGUUUGAUGUAUCUGGCUAUCAAUUCAUUUCUACCAUACAUUUUGCCUUCGUCUGAUAAGAUGAUUUUUCUCCUCAACAGAGGAUUGAGCAUCA
# B18: chr9:66341014:66341015:+_ENSMUSG00000038664_ENSMUST00000042824|mus_hu|FALSE|FALSE (ssRNA)
# RNA: GGGAGUUCUACAGUCCGACGAUCCCAUGCAGCACUGUGGCAGCGGCCAGCCGAGAUCUGCCGAACAUUUUUCCCUUGCAGACCUGUUACCAGGGUUGGUUCUCGAACAUGGUUGGUAUGGCCUAAGCCGAGCUGCCCUUCUGACAACAGAGGAUUGAGCAUCA
# B19: chr3:75345182:75345183:-_ENSMUSG00000027835_ENSMUST00000161137|mus_mus|motif|central (ssRNA)
# RNA: GGGAGUUCUACAGUCCGACGAUCAAGUGGUCUCAGCUUCAUUCUUCAUCUCUUCCAUUGUCAUCCUCAUUCAAAAGCCAACGGCAGUAGAAAAAGCAAUGCUAAAAUGCAGAGGAAUCUUCAUUCACUGCCGAAUUUCUUCCCCAACAGAGGAUUGAGCAUCA
# B20: 30705002_30707723_1052_CDS_ENSMUSG00000040850_ENSMUST00000041231|mouse|control|control (ssRNA)
# RNA: GGGAGUUCUACAGUCCGACGAUCUCUCAGAAUUCUUGUAAAUAUCUUCGGUACAUAUGGAUCCCAAUCUAUGUAUCCUAUAUUAUCUGUAGCCAAUCGAGCAAAGAGAUUUACUAAUUGCCCCUCCCACUGUGGGAGAUUUUGCAACAGAGGAUUGAGCAUCA
# B21: 32298048_32364075_478_5pUTR_ENSMUSG00000040451_ENSMUST00000099514|mouse|control|control (ssRNA)
# RNA: GGGAGUUCUACAGUCCGACGAUCCUUCUCCGCGUGUUCCAGUAGGUCUCCAUUACCUCAAUCAUGCUGUUACUUUUCUUCAUCAGUCUUUCUUCCGGUCUGUGCUGUCUUGUAUAUUAUAUGCCCGGCUCUGUGCUCCAAAUGCAACAGAGGAUUGAGCAUCA
# B22: chr11:77336104:77336105:-_ENSG00000074201_ENST00000525064|hu_mus|hu_hu_hu_mus_False|58_108 (ssRNA)
# RNA: GGGAGUUCUACAGUCCGACGAUCCUCGCACAUUGCAGUGAACAUCGCCUCCAAUGCUGACUUAUCACUGGGCACAAAUCUAAAUUCAGAAAUGGGUUCAACAUCAUCAUUGUCUUCCUCAUCUUCAUCAGAGAGAGGUUCUUUCAACAGAGGAUUGAGCAUCA
# Target: T1, UNK ZnF1-3
# Assay: nsRBNS (natural sequence RNA bind-n-seq); RBNS binding buffer (assumed for nsRBNS): 25 mM Tris pH 7.5, 150 mM KCl, 3 mM MgCl2, 0.01% Triton X-100, 500 ug/ml BSA, 20 U/ml SUPERase-In, 4 C; UNK is unkempt and MSI1 is Musashi-1; names of the RNAs are library labels; protein concentration not given here; high values mean tight binding
row,Binder,binding signal [enrichment R]
1,B1,2.55
2,B2,1.29
3,B3,0.591
4,B4,2.09
5,B5,1.71
6,B6,2
7,B7,0.821
8,B8,1.69
9,B9,1.27
10,B10,1.2
11,B11,0.861
12,B12,0.637
13,B13,0.903
14,B14,2.18
15,B15,1.33
16,B16,1.48
17,B17,0.417
18,B18,0.633
19,B19,0.96
20,B20,0.711
21,B21,0.539
22,B22,1.02

# From publication PMC12136788
